The campaign covered roughly 210,000 compounds. About 5,900 (2.8%) were called active. The shares of active, inactive and inconclusive entries below differ from those in the screen. Calls come from the whole dose curve; as a rule, active = well fitted activation curve with a large enough effect; inconclusive = small, poorly fitted or top-dose-only effect; inactive = no such curve, though single readings can be large or run the other way. Potencies beside an inconclusive call are fits to weak or partial responses and may not hold up.
Experiment: qHTS Assay for Enhancers of SMN2 Splice Variant Expression; note: nearly all actives have a fitted effect of over 55% in size; for activity change, positive = activation: % of control where 0% means no effect
Details: HEK293 SMN2-luciferase splicing reporter, luminescence, 30-36 h; activity change, positive = activation: at 46.1 µM (top of the series)
How it was run: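 HEK293 cells carry an SMN2 […]–luciferase reporter in which exon 7 inclusion puts luciferase in frame. Cells were plated 10-12 h before compound addition, then incubated 30-36 h at 37C. ONE-Glo luminescence was read; sodium butyrate at 4.5 mM final served as control.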
Potency is the fitted concentration of half-maximal effect; tags give direction and shape of the fitted curve.

| SMILES | activity change, positive = activation | Potency |
| --- | --- | --- |
| Cc1ccc(-c2nn(CCC(=O)Nc3ccc(Cl)c(Cl)c3)c(=O)c3ccccc23)cc1 | inactive: -7.8% | – |
| CC(=O)Nc1ccc(C(=O)Nc2nc(-c3cccnc3)cs2)cc1 | – | inconclusive: 15.8 µM [activator, partial curve] |
| CCCc1c(O)nc(SCCN(CC)CC)[nH]c1=O | – | inconclusive: 7.94 µM [activator, partial curve] |
| COc1ccc(CNC(=O)Nc2ccc(C)cc2)cc1 | – | inconclusive: 17.8 µM [activator, partial curve, poor fit] |
| O=C(CSc1nnc(-c2cccnc2)o1)Nc1ccccn1 | – | active: 12.6 µM |
| CCOC(=O)c1[nH]c2ccc(OC)cc2c1NC(=O)c1cccc(OC)c1 | inactive: -1.85% | – |
| CC1(C)CC(=O)c2cc(C(=O)Nc3ccc(Cl)cc3)c(=O)[nH]c2C1 | inactive: 7.84% | – |
| COC(=O)c1c(NC(=O)C2c3ccccc3Oc3ccccc32)sc2c1CCC(C)C2 (centres undefined) | inactive: -2.59% | – |
| CC1(C)CC(=O)C(N=Nc2ccc(Cl)cc2)=C(O)C1 | – | active: 14.1 µM |
| CC1CCN(C(=O)Cn2ncc3c4ccccc4n(Cc4ccc(Cl)cc4)c3c2=O)CC1 | inactive: 3.84% | – |
| CCc1ccccc1NC(=O)C1CCCN(c2nnc(-n3c(C)ccc3C)s2)C1 (centres undefined) | inactive: -6.06% | – |
| COc1ccc(OCCN2C(=O)c3ccccc3C2=O)cc1 | inactive: 3.68% | – |
| CCN(CC)C(=O)c1cc(Cl)ccn1 | inactive: -7.05% | – |
| COc1ccc(-c2nc(-c3ccccn3)nc(N3CCN(C)CC3)c2C#N)cc1 | – | inconclusive: 35.5 µM [activator, single point] |
| CC(C)C(=O)N=C1SC2CS(=O)(=O)CC2N1Cc1ccccc1 (centres undefined) | inactive: 3.32% | – |
| Cc1ccc(S(=O)(=O)C2(C(=O)Nc3ccc(F)cc3)CC2)cc1 | inactive: -18.8% | – |
| O=c1[nH]c(=O)n(C2CCCO2)cc1Br (centres undefined) | – | active: 35.5 µM |
| Cc1cc(OCC(=O)Nc2ccc(OCc3ccccc3)cc2)nc(C(C)C)n1 | – | inconclusive: 12.6 µM [activator, single point] |
| CNC(=O)c1cc(C)c(-c2ccccc2)s1 | inconclusive: 32.4% [activator] | – |
| O=C(c1ccncc1)N1CCC[C@@]2(CCN(c3ccncc3)C2)C1 | inactive: -2.54% | – |
| COC(=O)c1c(C)[nH]c(-c2csc(N)n2)c1C | – | inconclusive: 10 µM [activator, partial curve] |
| Cc1c(C(=O)NCc2cccnc2)oc2ccc(S(=O)(=O)N3CC(C)CC(C)C3)cc12 (centres undefined) | inactive: -6.43% | – |
| COc1ccc(C(=O)Nc2nncs2)c(OC)c1 | – | active: 11.2 µM |
| CCOC(=O)CN(C(=O)CNC(=O)c1ccco1)C(C(=O)NC1CCCCC1)c1cccc(OC)c1 (centres undefined) | – | inconclusive: 20 µM [activator, partial curve, poor fit] |
| CCOCC(=O)Nc1nc2ccc(OCC)cc2s1 | – | active: 11.2 µM |
| O=C(Nc1ccc(F)cc1F)c1ccc2c(=O)n3c(nc2c1)CCCCC3 | – | inconclusive: 35.5 µM [activator, single point] |
| Cc1ccc(Cn2ccc(NC(=O)c3cc(-c4ccc(Cl)c(Cl)c4)on3)n2)cc1 | inactive: -2.07% | – |

| SMILES | activity change, positive = activation | Potency |
| --- | --- | --- |
| CCCN1C(=O)C(O)(CC(=O)c2cccc(OC)c2)c2ccccc21 (centres undefined) | inconclusive: 32.9% [activator] | – |
| O=C(CN1CCC(O)(c2ccc(F)cc2)CC1)NCc1ccc(F)cc1 | – | inconclusive: 35.5 µM [activator, single point] |
| CCOC(=O)NC1(C(F)(F)F)NC(=O)N(Cc2ccco2)C1=O (centres undefined) | – | inconclusive: 3.16 µM [activator, full curve, poor fit] |
| c1ccc(OCCSc2nnnn2C2CCCCC2)cc1 | – | active: 11.2 µM |
| Cc1ccc2sc(NNC(=O)C3COc4ccccc4O3)nc2c1C (centres undefined) | – | active: 10 µM |
| O=C(Nc1ccon1)c1csc2ccccc12 | – | inconclusive: 28.2 µM [activator, partial curve, poor fit] |
| O=c1c2sc3ccccc3c2n(Cc2ccccc2F)c(=O)n1CCc1ccccc1 | inactive: 10.4% | – |
| Cc1cc(C(=O)N/N=C/c2cccc(OC(=O)c3ccco3)c2)n[nH]1 | – | inconclusive: 20 µM [activator, partial curve, poor fit] |
| CCC(=O)Oc1ccc(-c2nc3ccccc3c(=O)o2)cc1 | inactive: -4.75% | – |
| Cc1cc(NC(=O)c2cccc(Oc3ccccc3)c2)n[nH]1 | – | inconclusive: 25.1 µM [activator, single point] |
| Oc1ccc(Br)cc1-c1cc(-c2ccccc2F)[nH]n1 | – | inconclusive: 17.8 µM [activator, partial curve, poor fit] |
| CC(/C=N/NC(=O)c1cccnc1)=C\c1ccco1 | inconclusive: 32.1% [activator] | – |
| Cc1cccc(NC(=O)CSc2nnc(CNC(=O)c3c(F)cccc3Cl)o2)c1C | inactive: 5.96% | – |
| Cc1[nH]n(-c2ccccc2)c(=O)c1C=NCc1ccco1 | – | active: 11.2 µM |
| CC(C)c1ccc(NC(=S)NN2CCOCC2)cc1 | – | active: 22.4 µM |
| O=C(NNS(=O)(=O)c1ccc2ccccc2c1)c1cccs1 | inactive: 2.72% | – |
| Cc1ccc2nc(-c3cccnc3)oc2c1 | – | inconclusive: 35.5 µM [activator, single point] |
| Cc1c(CN(C)C)c2c(n1Cc1ccccc1)C(=O)c1ccccc1-2 | – | inconclusive: 5.01 µM [activator, full curve, poor fit] |
| CC(C)(C)NC(=O)c1cccc(NC(=O)CSc2ccc(Cl)cc2)c1 | inactive: -17.7% | – |
| COc1ccccc1NC(=O)Nc1nc(-c2cccnc2)nc2ccccc12 | inactive: -10.4% | – |
| CCC#CCOCC(=S)Nc1ccccc1 | inactive: -7.51% | – |
| COC(=O)c1cc(NC(=O)CC2C(=O)NCCN2C(=O)c2ccc(F)cc2)cc(C(=O)OC)c1 (centres undefined) | – | active: 10 µM |
| CSCCC(Nc1ncnc2ccc(Br)cc12)C(=O)O (centres undefined) | inactive: 5.55% | – |
| Cc1csc(NC(=O)Cc2coc3cc(C)c(C(C)C)cc23)n1 | – | inconclusive: 17.8 µM [activator, single point] |
| Cc1ccc(Nc2ncc3c(n2)CC(C)(C)CC3=O)cc1 | – | active: 11.2 µM |
| Cc1ccc(C)c(NC(=S)NC(C)C(c2cccs2)N2CCOCC2)c1 (centres undefined) | – | inconclusive: 0.0316 µM [activator, full curve, poor fit] |
| CCOC(=O)c1ccccc1N1C(=O)CSC1=S | – | inconclusive: 0.0056 µM [activator, full curve, poor fit] |

| SMILES | activity change, positive = activation | Potency |
| --- | --- | --- |
| CCCOC(=O)c1ccc(NC(=O)C2CCCO2)cc1 (centres undefined) | – | inconclusive: 12.6 µM [activator, partial curve] |
| CCOC(=O)c1c(C)[nH]c(C(=O)CSc2nnnn2-c2ccccc2)c1C | – | inconclusive: 31.6 µM [activator, single point] |
| CCN(CC)C(=O)Cn1c(=O)n(CCCCCC(=O)NCc2ccccc2Cl)c(=O)c2sccc21 | inactive: 1.12% | – |
| Cc1ccc2nc(-c3ccc(C)c(NC(=O)CSc4ccc(Cl)cc4)c3)oc2c1 | – | inconclusive: 35.5 µM [activator, single point] |
| O=C(/C=C/c1ccc(OCc2ccccc2)c(OCc2ccccc2)c1)c1cccnc1 | inactive: -28.4% | – |
| Cc1cc(NC(=O)C2CC2)ncc1NC(=O)c1ccccn1 | – | inconclusive: 25.1 µM [activator, single point] |
| COc1cc(/C=N/Nc2ccc(C(=O)O)cc2)ccc1O | – | inconclusive: 22.4 µM [activator, partial curve, poor fit] |
| C/C(N)=C(/C#N)C(=O)COC(=O)c1ccc(O)cc1 | – | inconclusive: 1.41 µM [activator, partial curve, poor fit] |
| Cc1ccccc1NC(=S)N1CCN(Cc2ccccc2)CC1 | – | inconclusive: 5.62 µM [activator, single point] |
| COc1ccc(NC(=O)N2CCc3ccccc32)cc1 | – | active: 3.16 µM |
| CCC(=O)OCCCNc1nc(-c2ccc(Cl)cc2)nc2ccccc12 | inactive: 3.12% | – |
| Clc1ccc(SCCOCCN2CCCCC2)cc1 | – | inconclusive: 5.62 µM [activator, single point] |
| NC(=O)OCC(COC(N)=O)c1ccccc1 | – | inconclusive: 0.0398 µM [activator, full curve, poor fit] |
| CC1C=CCC2C(=O)N(c3cccc(C(=O)N4CCN(c5ccc(F)cc5)CC4)c3)C(=O)C12 (centres undefined) | – | inconclusive: 11.2 µM [activator, single point] |
| Cc1cc(NC(=O)c2ccc3nc(C)sc3c2)no1 | – | active: 3.98 µM |
| O=C(c1ccccc1)c1nnc(-c2ccncc2)o1 | inactive: 5.11% | – |
| O=C(/C=C/c1ccc(N2CCOCC2)cc1)c1ccccc1 | – | inconclusive: 22.4 µM [activator, single point] |
| Cc1ccc(C)c(-c2nc3cc(N)ccc3o2)c1 | – | active: 11.2 µM |
| O=C(Nc1cccc(N=Cc2cc(Br)cc(Br)c2O)c1)c1ccco1 | – | inconclusive: 0.126 µM [activator, full curve, poor fit] |
| CC(C)Cc1cc(C(=O)Nc2cc(Br)ccc2O)no1 | – | inconclusive: 10 µM [activator, partial curve] |
| Cc1cnc(NC(=O)c2ccncc2)s1 | – | inconclusive: 8.91 µM [activator, partial curve, poor fit] |
| O=C(NCC1CCCO1)C(=O)NCC(c1ccco1)N1CCN(c2ccccc2)CC1 (centres undefined) | – | inconclusive: 0.0224 µM [activator, partial curve, poor fit] |
| CSc1ccccc1NC(=O)c1cc(C2CC2)on1 | – | inconclusive: 25.1 µM [activator, single point] |
| O=C(O)c1cccc(N2C(=O)c3cccnc3C2=O)c1 | – | inconclusive: 35.5 µM [activator, single point] |
| O=C(CC1C(=O)NCCN1C(=O)Nc1ccccc1)Nc1cccc(C(F)(F)F)c1 (centres undefined) | – | inconclusive: 0.0501 µM [activator, full curve] |
